Source: PMC6919601, “Identification of Plasmodium dipeptidyl aminopeptidase allosteric inhibitors by high throughput screening” (PLoS ONE, 2019)
The whole screen tested about 110,000 compounds, of which about 230 (0.21%) showed an effect of 50% or more. The list shows a part of the results.

biological target: DPAP1 (Plasmodium falciparum, UniProt Q8IIJ9); experiment: primary screen, percent inhibition; read by cleavage of a fluorogenic dipeptide substrate; higher = more effect of the substance; parameters: species or system P. falciparum D10 trophozoite lysates; single well
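Note: 30 min substrate incubation versus DMSO and 10 µM JCP410 controls.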

Sequence of DPAP1 (Q8IIJ9 whole entry, looked up): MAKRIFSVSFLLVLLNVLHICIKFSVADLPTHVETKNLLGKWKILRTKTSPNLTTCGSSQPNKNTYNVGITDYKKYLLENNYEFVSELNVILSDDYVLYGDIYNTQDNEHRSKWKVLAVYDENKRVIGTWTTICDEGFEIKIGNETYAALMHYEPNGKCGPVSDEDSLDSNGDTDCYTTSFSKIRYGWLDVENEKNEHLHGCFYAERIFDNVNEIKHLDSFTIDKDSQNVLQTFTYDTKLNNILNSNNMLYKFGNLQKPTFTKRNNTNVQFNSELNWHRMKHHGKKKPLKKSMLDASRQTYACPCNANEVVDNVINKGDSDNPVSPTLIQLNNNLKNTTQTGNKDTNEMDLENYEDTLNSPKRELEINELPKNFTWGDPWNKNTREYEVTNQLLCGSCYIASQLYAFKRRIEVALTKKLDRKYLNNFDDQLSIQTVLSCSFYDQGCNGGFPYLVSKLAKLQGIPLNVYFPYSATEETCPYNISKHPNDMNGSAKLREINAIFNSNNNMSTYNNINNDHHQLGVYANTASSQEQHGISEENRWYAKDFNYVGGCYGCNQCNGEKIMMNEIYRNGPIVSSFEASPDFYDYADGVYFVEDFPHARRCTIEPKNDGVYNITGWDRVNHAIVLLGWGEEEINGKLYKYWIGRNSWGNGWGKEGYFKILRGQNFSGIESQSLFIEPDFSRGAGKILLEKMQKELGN

SMILES	% Inhibition @ 10 uM [%]
O=C(COc1ccc(Cl)cc1)Nc1ccc(S(=O)(=O)N2CCCCCC2)cc1	-2.3
CCOC(=O)N1CCN(C(=O)CCCn2nc(C)n3c(cc4sccc43)c2=O)CC1	3.4
Cc1cc(C)n2nc(-c3ccc(-c4ccccc4)cc3)cc2n1	-4.8
CCCCN(CC)c1ncnc2ccc(Br)cc12	2.17
Cc1ccc(C2CC(=O)NC3=C2C(=O)CCC3)cc1Br (centres unmarked)	-3.21
COc1ccc(CCNC(=O)C2CCN(S(=O)(=O)N3CCC4(CC3)OCCO4)CC2)cc1OC	-1.21
CC1CCC(NC(=O)Cn2ncc3c4ccccc4n(Cc4ccccc4F)c3c2=O)CC1 (centres unmarked)	-3.35
O=C(COC(=O)c1ccco1)c1ccc(-n2nncc2-c2ccco2)cc1	-0.349
COc1cccc2c1cc1c(=O)n(CC(=O)N3CCCCCC3)nc(C)n12	-3.47
CCN(Cc1ccccc1)C(=O)c1cccc([N+](=O)[O-])c1	-4.3
COc1cc(/C=C2/NC(=O)N(Cc3ccccc3F)C2=O)cc(Cl)c1O	-1.28
COCCN1C(=O)c2ccccc2C(C(=O)Nc2cccc(C)n2)C1c1c[nH]c2ccccc12 (centres unmarked)	5.62
Nc1nnc(-c2cc(-c3cccs3)on2)o1	-1.72
CC1CCc2c(sc(NC(=O)C3CC3c3ccccc3)c2C(N)=O)C1 (centres unmarked)	-4.21
Cc1nc2sc(C(=O)c3ccc4c(c3)OCO4)c(N)c2c(-c2cccs2)c1C#N	3.62
CN1C(=O)c2ccccc2C(C(=O)N2CCC3(CC2)OCCO3)C1c1cccs1 (centres unmarked)	1.94
CS(=O)(=O)N(Cc1ccc(C(=O)NCc2ccc(Cl)cc2)cc1)c1ccccc1	1.59
NC=C1C(=O)N(CCc2ccccc2)C(=O)N(CCc2ccccc2)C1=O	2.79
O=C(CSCc1nc(O)c2nnn(Cc3ccc(F)cc3)c2n1)NC1CCCCCC1	0.238
Cc1ccc(-c2nc3n(n2)C(=O)CC(c2ccco2)S3)cc1 (centres unmarked)	3.6
COc1ccc(NC(=O)CN(c2ccccc2C)S(=O)(=O)c2ccccc2)cc1OC	-3.09
Cc1cccc(C2C(=O)c3ccccc3C2=O)c1C	8.57
ClC1(Cl)CC1CSc1nc[nH]n1 (centres unmarked)	-3.63
CCOc1ccc(Sc2cc(C(=O)NCCN3CCOCC3)c3ccccc3n2)cc1	-1.79
Cc1ccc(C(=O)Nc2ccc(Cl)c([N+](=O)[O-])c2)cc1	-0.414

SMILES	% Inhibition @ 10 uM [%]
CC(Cc1ccccc1F)N[C@H]1CCCCNC1=O (some centres unmarked)	3.35
COc1ccc(-n2nc3ccc(NC(=O)COc4ccccc4C)cc3n2)cc1	1.64
C=CCNC(=O)/C(=C\c1ccco1)NC(=O)c1ccccc1Cl	19
CC1CCN(Cc2nc3c(c(=O)n(C)c(=O)n3C)n2CCCO)CC1	-3.23
Clc1cccc(NCc2ccc3c(c2)OCO3)c1	-5.98
COc1ccc(C2Nc3ccccc3C(=O)N2Cc2ccccc2)cc1CN1CCOCC1 (centres unmarked)	-9.66
COc1cc(C(O)c2cc3c(cc2CO)OCO3)cc(OC)c1OC (centres unmarked)	-1.49
N#Cc1nc(COc2ccccc2Cl)oc1NCc1ccc(F)cc1	-1.98
CCC(NC(=O)c1cc(OC)c(OC)c(OC)c1)C12CC3CC(CC(C3)C1)C2 (centres unmarked)	0.503
C=CCn1c(=N)c(C(=O)NCC)cc2c(=O)n3ccccc3nc21	3.72
CC1CC(C)(C)NC(=S)N1CCC(=O)NCCc1ccc(Cl)cc1 (centres unmarked)	2.73
Oc1ccccc1-c1n[nH]c(/C=C/c2ccccc2Cl)n1	-6.64
Cc1[nH]nc2c1C(c1ccccc1F)C(C#N)=C(N)O2 (centres unmarked)	1.41
COc1cccc(-n2nnc3c(=O)n(C/C=C/c4ccccc4)cnc32)c1	1.24
COC(=O)c1ccc(-c2ccco2)n1CC(=O)N1CCN(c2ccccn2)CC1	-1.38
CCOC(=O)N1CCC(NC(=O)c2ccc3nc(N4CCCCC4)sc3c2)CC1	-2.37
COc1ccc(-c2ccc(C#N)c(SCC(=O)NCc3ccc(F)cc3)n2)cc1OC	-2.45
CCc1nnc(SCC(=O)NC2CCCCC2)nc1CC	4.52
CCOC(=O)c1c(S(=O)(=O)NCCC(C)N2CCOCC2)c(C)n(C)c1C (centres unmarked)	-6.25
COC(=O)C1=C(C)N=C2SCCC(=O)N2C1c1ccccc1 (centres unmarked)	2.05
Oc1nc2nonc2nc1Nc1ccccc1	1.29
CCN(CC)C(=O)CN(c1cc(C)cc(C)c1)S(=O)(=O)c1ccccc1	2.02
Clc1ccccc1CN1CCN(Cc2ccccc2)CC1	-0.127
COc1cc(C2CC(=O)N3CN(C4CCCCC4)CSC3=C2C#N)ccc1O (centres unmarked)	-1.28
COc1ccc(C2SC(C)C(=O)N2c2ccc(C)cc2)cc1 (centres unmarked)	-3.44

SMILES	% Inhibition @ 10 uM [%]
Cc1ccc2c(CN3CCN(Cc4ccc5c(c4)OCO5)CC3)cc(=O)oc2c1	3.27
Cc1cccc(N2C(=O)CC(N3CCN(C4CC(=O)N(c5ccccc5C)C4=O)CC3)C2=O)c1 (centres unmarked)	-2.73
COCCNC(=O)C1CCN(S(=O)(=O)c2ccc3c(c2)nc(C)n3C2CCCC2)CC1	-1.75
CCOC(=O)c1c(S(=O)(=O)N(C)C2CCCCC2)c(C)n(C)c1C	-5.28
Cc1nn(C)cc1CN(C)C(=O)C12CC3CC(CC(C3)C1)C2	2.42
COc1ccc(NC(=O)Cc2cccc3ccccc23)cc1	-2.19
O=C(O)CS(=O)(=O)c1ccc(-c2ccc(S(=O)(=O)CC(=O)O)cc2)cc1	-3.52
CN(C(=O)Cn1nnc2sc3c(c2c1=O)CCCC3)C1CCCCC1	2.41
COc1ccccc1C1C2=C(O)CC(C)(C)CC2=Nc2[nH]nc(-c3ccccc3)c21 (centres unmarked)	3.02
CC(C)c1cc(C(C)C)c(S(=O)(=O)Nc2ccc(S(N)(=O)=O)cc2)c(C(C)C)c1	21.6
Fc1ccccc1N1CCN(C/C=C/c2ccccc2)CC1	-7.34
O=C(CSc1nnc(Cc2ccccc2)o1)N1CCOCC1	2.97
N#CCNC(=O)[C@H](CC1CCCCC1)NC(=O)N1CCCCC1	-0.214
C(=N\n1cnnc1)/c1cccc2ccccc12	6.23
CCOC(=O)c1c(NC(=O)c2cccc(Cl)c2)sc(C(C)=O)c1C	1.18
Cc1nc2cc(-c3ccccc3)nn2c(C)c1C	2.44
C[C@]12CCC(OC3CCCCO3)CC1CCC1C2CC[C@]2(C)C(O)CCC12 (some centres unmarked)	-2.87
Cc1ccc(S(=O)(=O)N(CC(=O)NCc2cccnc2)c2ccc(Cl)cc2)cc1	0.812
Nc1c(O)nc2ccc(Cl)c3c2c1-c1ccccc1C3=O	-5.62
COc1ccc(Nc2nc(N)nc(CSc3nc(C)cc(C)n3)n2)cc1	-0.884
CCc1ccc(/C=C2/Sc3ccccc3C2=O)cc1[N+](=O)[O-]	-3.32
Cc1cc(=O)n(C)c(=O)n1Cc1ccccc1C(=O)O	-2.19
NC(=O)C1(N2CCCCC2)CCN(S(=O)(=O)c2cccs2)CC1	4.18
O=C(C1CCN(S(=O)(=O)c2ccc3[nH]c4c(c3c2)CCCCC4)CC1)N1CCCC1	-8.07
O=S(=O)(c1ccc(S(=O)(=O)N(Cc2ccccn2)CC2CCCO2)cc1)N1CCCCC1 (centres unmarked)	0.401

SMILES	% Inhibition @ 10 uM [%]
CC(C)OCCCNC(=O)c1ccc2c(c1)nc(S)n1c3ccccc3nc21	2.07
CC(C)CCn1c(CN2CC(C)OC(C)C2)nc2c1c(=O)n(C)c(=O)n2C (centres unmarked)	-3.23
COc1ccc(NS(=O)(=O)c2ccc(NC(=O)C3CCCCC3)cc2)cc1	-3.41
C=C(C)Cn1c(=S)[nH]c2c(c1=O)C(C)(C)Cc1ccccc1-2	-0.929
CCC/N=c1\c(NS(C)(=O)=O)c(O)oc2ccccc12	-4.46
CC1=C(C(=O)N2CCOCC2)C(c2ccsc2)C2=C(O)CCCC2=N1 (centres unmarked)	-2.24
CCOC(=O)C1=C(CN(CC)CC)N(C)C(=O)NC1c1ccccc1 (centres unmarked)	1.13
COc1ccc(-c2cc(C(F)(F)F)c(C#N)c(SCC(=O)NC(C)C)n2)cc1OC	6.27
CCOC(=O)N1CCC(n2c(SCc3ccc(C)cc3)nc3ccsc3c2=O)CC1	6.18
CCN(CC)C(=O)c1cc(-c2cc(C(=O)N(CC)CC)c3ccccc3n2)nc2ccccc12	1.12
CC(=O)Nc1cccc(NC(=O)c2ccc(F)cc2)c1	-5.5
O=C(O)c1ccc(CNC(=O)C2CCC(CNS(=O)(=O)c3cccc4nsnc34)CC2)cc1 (centres unmarked)	-0.465
COc1ccccc1CN1CCC(N2CCCCC2)CC1	-6.6
COc1cccc(N/C=C(\C#N)C(=O)NC(=O)Cc2ccccc2)c1	-6.69
CCC(Oc1ccccc1)C(=O)Nc1nnc(S(=O)(=O)N2CCCCC2)s1 (centres unmarked)	-1.72
Cc1ccccc1CNC(=O)CN(c1cccc(F)c1)S(C)(=O)=O	-3.92
C/C(O)=C1/C(=O)NC(=O)N(c2ccc(Cl)cc2)C1=O	4.15
CC(C)CC(C(=O)NCC#N)c1cccc(-c2cccc([SH+](O)(O)NCCN3CCOCC3)c2)c1 (centres unmarked)	0.173
COc1ccccc1OCCn1c(CCNC(=O)C2CCCCC2)nc2ccccc21	6.31
Cc1cccc(NC(=O)CN2C(=O)N/C(=C/c3c[nH]c4ccccc34)C2=O)c1	1.92
O=[N+]([O-])c1ccc(N2CCCCC2)c2nonc12	7.13
CCNC(=O)c1ccc2c(c1)sc1nc(-c3ccc(OC)cc3)cn12	7.63
CCCCSc1nnc(NC(=O)CSc2nc3cccnc3[nH]2)s1	0.776
